# Measured values from PubChem BioAssay AID504706 (National Center for Advancing Translational Sciences (NCATS), 2011).
# In all, about 320,000 compounds went through this assay and about 200 (0.062%) were called active. The shares of active, inactive and inconclusive entries below differ from those in the screen. The call rests on the fitted dose curve; in most records, active means well fitted activation curve with a large enough effect; inconclusive means small, poorly fitted or top-dose-only effect; inactive means no such curve, though single readings can be large or run the other way. Potencies of inconclusive entries are left out as doubtful fits.
# Assay: qHTS assay for re-activators of p53 using a Luc reporter; further: nearly all actives have a fitted effect of over 45% in size
# Conditions: H1299 p53-A138V BP100-luciferase reporter, luminescence, 24 h; series mostly up to 92.2 µM
# Summary of the method: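 H1299 (p53-null), stable ts p53-A138V + BP100-Luc; 1000 cells/well, Opti-MEM/10% FBS; cpd 4 pt, 1:5; 24 h, 37 deg C, 5% CO2; detection reagent 10 min RT; luminescence.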
# Potency means the concentration at half of the fitted maximal effect; tags describe the fitted curve by direction and shape.
row,SMILES,Potency
1,C=C1CCc2c([nH]c3ccc(OCC(C)C)cc23)C1=O,inactive
2,Cn1c(SCc2c(F)cccc2Cl)nnc1-c1cccs1,"inconclusive [activator, full curve, poor fit]"
3,CC(C)CN1C2CCCC1CC(NC(=O)c1ccc([N+](=O)[O-])cc1)C2 (stereo unspecified),"inconclusive [activator, full curve, poor fit]"
4,O=C(Nc1ccc(C(F)(F)F)cc1)c1csc(-c2ccncc2)n1,inactive
5,CC(C)Cn1c(N)c(C(=O)COC(=O)c2ccccc2Cl)c(=O)n(C)c1=O,inactive
6,Clc1ccc(/C=N/NC2=Nc3cccc4cccc2c34)cc1,"inconclusive [activator, partial curve, poor fit]"
7,CC1=CC(c2ccccc2)=Nc2ccc(C)cc2N1,"inconclusive [activator, partial curve, poor fit]"
8,CCc1nc(N2CCCC(C)C2)c2oc3ccccc3c2n1 (stereo unspecified),"inconclusive [activator, partial curve, poor fit]"
9,Cc1ccccc1-c1nnn(Cc2cccc(S(=O)(=O)N3CCOCC3)c2)n1,inactive
10,C=CCNc1nc2ccccc2c(=O)[nH]1,inactive
11,Fc1ccc2cc(-c3ccccc3F)ncc2c1,"inconclusive [activator, partial curve, poor fit]"
12,O=C1CCCc2nc(N3CCc4ccccc43)ncc21,"inconclusive [activator, full curve, poor fit]"
13,CC1(C)Cc2c(cnn2-c2ccc(F)cc2)C(NC(=O)CCN2CCCC2=O)C1 (stereo unspecified),"inconclusive [activator, partial curve, poor fit]"
14,Cc1cccc2sc(N(CCN(C)C)C(=O)/C=C/c3cccs3)nc12,"inconclusive [activator, single point]"
15,C[C@H](NC(=O)OC(C)(C)C)c1nnc(SCC(=O)Nc2cccc(Cl)c2)o1,inactive
16,N#Cc1c(NC(=O)c2ccc([N+](=O)[O-])o2)sc2c1CCC2,"inconclusive [activator, full curve, poor fit]"
17,CCc1ccc(NC(=O)C(C)OC(=O)CN2C(=O)NC3(CCCC3)C2=O)cc1 (stereo unspecified),"inconclusive [activator, single point]"
18,CC12CCC(C(N)=O)(C1Br)C2(C)C (stereo unspecified),"inconclusive [activator, single point]"
19,N#CC1=C(N)C(C#N)(C#N)[C@H](c2ccncc2)[C@H]2CC3(CC=C12)OCCO3,"inconclusive [activator, partial curve, poor fit]"
20,CCc1nnc(NC(=O)c2sc3nc4c(cc3c2N)CCCCC4)s1,"inconclusive [activator, full curve, poor fit]"
21,Cc1cccc(Cn2c(Cc3ccccc3)nc3ccccc32)c1,inactive
22,Cc1ccc(N=C2NC(=O)/C(=C\c3ccco3)S2)cc1,"inconclusive [activator, partial curve, poor fit]"

row,SMILES,Potency
1,CC(C)c1ccc(-c2noc(C3CCCN(C(=O)c4ccc(F)cc4F)C3)n2)cc1 (stereo unspecified),inactive
2,COc1cc2c(cc1OC)C(c1ccccc1)N(C(=O)c1cccc(S(C)(=O)=O)c1)CC2 (stereo unspecified),inactive
3,CC1CC(C)CN(C(=O)CSc2nc3ccsc3c(=O)n2Cc2ccccn2)C1 (stereo unspecified),"inconclusive [activator, partial curve, poor fit]"
4,O=C(CSc1nncc2ccccc12)N1CCCCC1,"inconclusive [activator, partial curve, poor fit]"
5,COc1cccc(C(=O)/C=C/Nc2ccc(S(=O)(=O)Nc3ccc(C(C)=O)cc3)cc2)c1,"inconclusive [activator, partial curve, poor fit]"
6,CC(C)=NN/C(N)=N/C(=S)Nc1ccc(C)cc1,"inconclusive [activator, partial curve, poor fit]"
7,COc1ccccc1Oc1ccc2c(c1)C(=O)N(c1cccc(O)c1)C2=O,"inconclusive [activator, single point]"
8,Cc1cc(C)nc(Sc2ncnc3c2oc2ccccc23)n1,"inconclusive [activator, full curve, poor fit]"
9,c1ccc(N2CCN(c3ncccn3)CC2)cc1,"inconclusive [activator, partial curve, poor fit]"
10,Cn1cnc([N+](=O)[O-])c1Sc1ncnc2nc[nH]c12,"inconclusive [activator, partial curve, poor fit]"
11,CC(NC(=O)/C=C/c1ccco1)c1nc2ccccc2n1Cc1c(Cl)cccc1Cl (stereo unspecified),inactive
12,O=C(CNC(=O)c1ccccc1)OCc1ccc([N+](=O)[O-])cc1,"inconclusive [activator, single point]"
13,Cc1ccc(OCc2nc(-c3ccccn3)n[nH]2)cc1,"inconclusive [activator, partial curve, poor fit]"
14,O=C(N/N=C1\CCCc2ccccc21)c1cccc(Br)c1,"inconclusive [activator, full curve, poor fit]"
15,CCNc1nc(N)nc(-c2cc(Cl)ccc2O)n1,"inconclusive [activator, partial curve, poor fit]"
16,CC(=O)NC12CC3CC(C1)CC(C(=O)OCC(=O)c1cc(C)n(C)c1C)(C3)C2,"inconclusive [activator, full curve, poor fit]"
17,Cc1ccc(S(=O)(=O)Oc2cc(N)c3c(n2)CCC3)cc1,"inconclusive [activator, partial curve, poor fit]"
18,COc1ccc(C(=O)Nc2nnc(CC(=O)N/N=C/c3ccc(O)cc3O)s2)cc1,inactive
19,Cc1ccc(-c2ccc(/C=N/NC(N)=S)o2)cc1,"inconclusive [activator, full curve, poor fit]"
20,CN(C)c1ccc(NC(=S)NCC2CCCO2)cc1 (stereo unspecified),"inconclusive [activator, partial curve, poor fit]"
21,COc1ccc2c(c1OC)C(=O)N1N=C(c3ccc(Br)cc3)CC21 (stereo unspecified),inactive
22,Nc1c2c(nc3sc4c(c13)CCCCC4)CCCCC2,"inconclusive [activator, partial curve, poor fit]"

row,SMILES,Potency
1,O=C(Cn1ccsc1=NC(=O)c1ccco1)c1ccccc1,"inconclusive [activator, single point]"
2,O=C(CSc1ccc(-c2cccs2)nn1)N1CCCCCC1,"inconclusive [activator, single point]"
3,O=C(NCc1nc2ccccc2[nH]1)c1ccccc1F,"inconclusive [activator, single point]"
4,COc1ccc(-c2ccc(C(=O)C3CC3)cc2)cc1,"inconclusive [activator, full curve, poor fit]"
5,Nc1nc(NC(=O)c2ccccc2)nn1-c1ccccc1,"inconclusive [activator, partial curve, poor fit]"
6,COc1cc(OC)c2c(-c3cccc(-c4ccc(NC(C)=O)cc4)c3)cc(=O)oc2c1,"inconclusive [activator, partial curve, poor fit]"
7,Cc1cccn2cc(-c3ccccc3)nc12,"inconclusive [activator, partial curve, poor fit]"
8,CC(C)c1ccc(NS(=O)(=O)c2ccc3c(c2)oc(=O)n3C)cc1,inactive
9,COc1ccc(N(CC(=O)N2CCOCC2)S(C)(=O)=O)cc1OC,"inconclusive [activator, single point]"
10,COc1ccc(-c2nc(CS(=O)CC(=O)NCC3CCCO3)c(C)o2)cc1 (stereo unspecified),"inconclusive [activator, single point]"
11,COc1ccc(S(=O)(=O)N(C)C)cc1NC(=O)COC(=O)C1CC1,inactive
12,O=C(COC(=O)c1cccc(Cl)c1Cl)NCc1cccs1,"inconclusive [activator, partial curve, poor fit]"
13,COc1ccc(-c2noc(-c3cccs3)n2)cc1OC,"inconclusive [activator, partial curve, poor fit]"
14,CC(C)c1ccc(N(C(=O)c2ccco2)C(C(=O)NC2CCCC2)c2ccncc2)cc1 (stereo unspecified),"inconclusive [activator, full curve, poor fit]"
15,O=C(Nc1ccccc1)N1CC=C(c2ccccc2)CC1,"inconclusive [activator, full curve, poor fit]"
16,COc1ccccc1NC(=O)CN(C)S(=O)(=O)c1cccc2cccnc12,inactive
17,O=[N+]([O-])c1ccc(-c2c(-c3ccccc3)ncc3ccc(F)cc23)cc1,"inconclusive [activator, single point]"
18,CC(C)C(=O)N1CCN(c2ccccc2NC(=O)c2ccc([N+](=O)[O-])o2)CC1,"inconclusive [activator, single point]"
19,CC(=O)Nc1ccc(NC(=O)CSc2nnc(NC(=O)C3CC(=O)N(c4ccccc4)C3)s2)cc1 (stereo unspecified),"inconclusive [activator, single point]"
20,O=C(O)c1ccccc1-c1ccc(/C=C2\SC(=O)N(c3ccccc3)C2=O)o1,inactive
21,O=C(Oc1ccc(Cl)cc1)N1CCCCC1,"inconclusive [activator, partial curve, poor fit]"
22,COc1ccccc1C(=O)Nc1ccc2[nH]ncc2c1,inactive
